Molecular target: apolipoprotein E4 (human) (UniProt P02649)
Test: cross-linking; apoE4/POPC rHDL cross-linked with a large excess of BS3 (molar ratio BS3:apoE4 200:1), SDS-PAGE

stoichiometry N: 2
Substance: apolipoprotein E4 (a stretch of the chain, chain not printed) (natural protein; other documents disagree on this pair)

Reference: PMC6033463
